{"source": "ChEMBL document CHEMBL4689842", "about": "“EUbOPEN Chemogenomics Library wave 1” (2021)", "assay_type_in_all_cases": "toxicity, cell-based", "key": {"Fibroblast": {"system": "Fibroblast", "experiment": "Multiplex assay against human fibroblast", "summary_of_the_method": "(§1)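 At seeding, live cells were stained with Hoechst33342, BioTracker Green Microtubule Cytoskeleton Dye, MitoTracker Red and Annexin V Alexa Fluor 680. After compound addition they were imaged on a CQ1 microscope at 37°C and 5% CO2, and CellPathfinder machine-learning gating sorted them into Hoechst high-intensity objects or normal cells, with normal cells further split into healthy, pyknosed or fragmented nuclei and pyknosed cells into mitotic or apoptotic. Tubulin, mitochondrial-mass and membrane-permeability phenotypes are given as per cents of cells with healthy nuclei.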"}, "HEK-293T": {"system": "HEK-293T", "experiment": "Multiplex assay against HEK293T", "conditions": "human", "summary_of_the_method": "as §1"}, "U2OS": {"system": "U2OS", "experiment": "Multiplex assay against U2OS", "conditions": "human", "summary_of_the_method": "as §1"}, "[1]": {"conditions": "12 h, 10 µM, compound concentration 10 uM, replicate 1"}, "[2]": {"conditions": "24 h, 10 µM, compound concentration 10 uM, replicate 1"}, "[3]": {"conditions": "24 h, 10 µM, compound concentration 10 uM, replicate 2"}, "[4]": {"conditions": "12 h, 10 µM, compound concentration 10 uM, replicate 2"}, "[5]": {"conditions": "12 h, 1 µM, compound concentration 1 uM, replicate 2"}, "[6]": {"conditions": "24 h, 1 µM, compound concentration 1 uM, replicate 2"}, "[7]": {"conditions": "12 h, 1 µM, compound concentration 1 uM, replicate 1"}, "[8]": {"conditions": "24 h, 1 µM, compound concentration 1 uM, replicate 1"}}, "note": "The source holds more than one record for some entries. The other results are left out here. An entry can have further records. Values that stand side by side repeat one measurement (runs, samples, wells, individuals or studies).", "data": [{"smiles": "COc1ccc(Oc2cc(NCCC(F)(F)F)c3ncc(-c4ccc(C(=O)NC5CC5)c(C)c4)n3n2)c(F)c1F", "note": "[BAY-1217389]", "values": [{"measurement": "Population Mitochondria Different-Phenotype (%)", "setting": "Fibroblast; [1]", "result": "22% and 4%"}, {"measurement": "Population Mitochondria Different-Phenotype (%)", "setting": "Fibroblast; [2]", "result": "50% and 9%"}, {"measurement": "Population Apoptotic (%)", "setting": "Fibroblast; [3]", "result": "67% and 11%"}, {"measurement": "Total Cell Count", "setting": "Fibroblast; [3]", "result": "284 and 82"}, {"measurement": "Population Mitochondria Different-Phenotype (%)", "setting": "HEK-293T; [1]", "result": "53% and 11%"}, {"measurement": "Population Membrane Permeable-Phenotype (%)", "setting": "HEK-293T; [4]", "result": "16% and 4%"}, {"measurement": "Population Mitochondria Different-Phenotype (%)", "setting": "HEK-293T; [4]", "result": "21% and 69%"}, {"measurement": "Population Mitochondria Different-Phenotype (%)", "setting": "HEK-293T; [2]", "result": "63% and 10%"}, {"measurement": "Population Pyknosed Nuclei (%)", "setting": "HEK-293T; [2]", "result": "28% and 9%"}, {"measurement": "Population Apoptotic (%)", "setting": "HEK-293T; [3]", "result": "5% and 31%"}, {"measurement": "Population Membrane Permeable-Phenotype (%)", "setting": "HEK-293T; [3]", "result": "26% and 6%"}, {"measurement": "Population Mitochondria Different-Phenotype (%)", "setting": "HEK-293T; [3]", "result": "8% and 61%"}, {"measurement": "Population Pyknosed Nuclei (%)", "setting": "HEK-293T; [3]", "result": "2% and 7%"}, {"measurement": "Population Mitochondria Different-Phenotype (%)", "setting": "U2OS; [1]", "result": "22% and 73%"}, {"measurement": "Population Mitochondria Different-Phenotype (%)", "setting": "U2OS; [4]", "result": "23% and 92%"}, {"measurement": "Population Pyknosed Nuclei (%)", "setting": "U2OS; [4]", "result": "5% and 20%"}]}, {"smiles": "CC(C)C(=O)Nc1n[nH]c2cc(-c3cccc(NS(=O)(=O)C4CC4)c3)ccc12", "values": [{"measurement": "Population Membrane Permeable-Phenotype (%)", "setting": "Fibroblast; [5]", "result": "15% and 3%"}, {"measurement": "Population Mitochondria Different-Phenotype (%)", "setting": "Fibroblast; [5]", "result": "5% and 23%"}, {"measurement": "Population Mitotic Cells (%)", "setting": "Fibroblast; [5]", "result": "0% and 50%"}, {"measurement": "Population Pyknosed Nuclei (%)", "setting": "HEK-293T; [6]", "result": "1% and 4%"}, {"measurement": "Population Hoechst High Intensity Objects (%)", "setting": "U2OS; [7]", "result": "1% and 4%"}, {"measurement": "Population Membrane Permeable-Phenotype (%)", "setting": "U2OS; [6]", "result": "17% and 4%"}]}, {"smiles": "Cn1cc(C2=C(c3cn(C4CCN(Cc5ccccn5)CC4)c4ccccc34)C(=O)NC2=O)c2ccccc21", "note": "[ENZASTAURIN]", "values": [{"measurement": "Population Hoechst High Intensity Objects (%)", "setting": "Fibroblast; [7]", "result": "15% and 66%"}, {"measurement": "Population Mitochondria Different-Phenotype (%)", "setting": "Fibroblast; [7]", "result": "6% and 28%"}, {"measurement": "Population Tubulin-Different-Phenotype (%)", "setting": "Fibroblast; [7]", "result": "18% and 70%"}, {"measurement": "Population Tubulin-Different-Phenotype (%)", "setting": "Fibroblast; [5]", "result": "16% and 73%"}, {"measurement": "Population Hoechst High Intensity Objects (%)", "setting": "Fibroblast; [8]", "result": "71% and 16%"}, {"measurement": "Population Mitochondria Different-Phenotype (%)", "setting": "Fibroblast; [8]", "result": "68% and 5%"}, {"measurement": "Population Tubulin-Different-Phenotype (%)", "setting": "Fibroblast; [8]", "result": "72% and 11%"}, {"measurement": "Population Mitochondria Different-Phenotype (%)", "setting": "Fibroblast; [6]", "result": "15% and 85%"}, {"measurement": "Population Mitotic Cells (%)", "setting": "Fibroblast; [6]", "result": "66% and 9%"}, {"measurement": "Population Pyknosed Nuclei (%)", "setting": "Fibroblast; [6]", "result": "6% and 30%"}, {"measurement": "Population Tubulin-Different-Phenotype (%)", "setting": "Fibroblast; [6]", "result": "15% and 85%"}, {"measurement": "Population Mitochondria Different-Phenotype (%)", "setting": "HEK-293T; [7]", "result": "10% and 52%"}, {"measurement": "Population Tubulin-Different-Phenotype (%)", "setting": "HEK-293T; [7]", "result": "23% and 79%"}, {"measurement": "Population Mitochondria Different-Phenotype (%)", "setting": "HEK-293T; [8]", "result": "78% and 12%"}, {"measurement": "Population Apoptotic (%)", "setting": "HEK-293T; [6]", "result": "31% and 6%"}, {"measurement": "Population Mitochondria Different-Phenotype (%)", "setting": "HEK-293T; [6]", "result": "81% and 8%"}, {"measurement": "Population Pyknosed Nuclei (%)", "setting": "HEK-293T; [6]", "result": "10% and 3%"}, {"measurement": "Population Mitochondria Different-Phenotype (%)", "setting": "U2OS; [7]", "result": "95% and 16%"}, {"measurement": "Population Pyknosed Nuclei (%)", "setting": "U2OS; [7]", "result": "49% and 12%"}, {"measurement": "Population Mitochondria Different-Phenotype (%)", "setting": "U2OS; [5]", "result": "98% and 18%"}, {"measurement": "Population Healthy Nuclei (%)", "setting": "U2OS; [8]", "result": "16% and 80%"}, {"measurement": "Population Hoechst High Intensity Objects (%)", "setting": "U2OS; [8]", "result": "16% and 3%"}, {"measurement": "Population Membrane Permeable-Phenotype (%)", "setting": "U2OS; [8]", "result": "95% and 20%"}, {"measurement": "Population Mitochondria Different-Phenotype (%)", "setting": "U2OS; [8]", "result": "100% and 10%"}, {"measurement": "Population Mitotic Cells (%)", "setting": "U2OS; [8]", "result": "10% and 46%"}, {"measurement": "Population Pyknosed Nuclei (%)", "setting": "U2OS; [8]", "result": "68% and 13%"}, {"measurement": "Population Tubulin-Different-Phenotype (%)", "setting": "U2OS; [8]", "result": "100% and 25%"}, {"measurement": "Population Healthy Nuclei (%)", "setting": "U2OS; [6]", "result": "19% and 79%"}, {"measurement": "Population Mitochondria Different-Phenotype (%)", "setting": "U2OS; [6]", "result": "95% and 18%"}, {"measurement": "Population Pyknosed Nuclei (%)", "setting": "U2OS; [6]", "result": "65% and 12%"}]}]}
